Measured values published in PubChem BioAssay AID1347165 (National Center for Advancing Translational Sciences (NCATS), 2019).
In all, about 220,000 compounds went through this assay and about 5,700 (2.6%) were called active. The inconclusive results got no clear call from the source; some entries with a clear call stand among them for comparison. Calls follow the shape of the dose curve; as a rule, active = well fitted inhibition curve with a large enough effect; inconclusive = small, poorly fitted or top-dose-only effect; inactive = no such curve, though single readings can be large or run the other way. Potencies of inconclusive entries are doubtful fits and often do not repeat.

Target: Lysine-specific demethylase 5B (Homo sapiens) (UniProt Q9UGL1)
Experiment: Primary screen for KDM5B Histone Demethylases FDH-coupled qHTS; also: nearly all actives have a fitted effect of over 70% in size; as to activity change, negative = inhibition: 0% is about no effect
Conditions: FDH-coupled NADH fluorescence (FDH is formaldehyde dehydrogenase); activity change, negative = inhibition: at 57.7 µM (top of the series) unless noted
In short: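 Measured: NADH fluorescence change, 30 min, RT. System: KDM5BΔAP 200 nM final, H3K4me3 peptide, α-KG, Fe(II), ascorbate, NAD⁺ plus FDH, pH 7.5 HEPES. Compounds: titrated, 10 min pre-incubation with enzyme.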
Potency is read from the fitted curve at half-maximal effect; tags tell the direction and shape of the fitted curve.

Chain of UniProt Q9UGL1 (Q9UGL1 whole entry, looked up): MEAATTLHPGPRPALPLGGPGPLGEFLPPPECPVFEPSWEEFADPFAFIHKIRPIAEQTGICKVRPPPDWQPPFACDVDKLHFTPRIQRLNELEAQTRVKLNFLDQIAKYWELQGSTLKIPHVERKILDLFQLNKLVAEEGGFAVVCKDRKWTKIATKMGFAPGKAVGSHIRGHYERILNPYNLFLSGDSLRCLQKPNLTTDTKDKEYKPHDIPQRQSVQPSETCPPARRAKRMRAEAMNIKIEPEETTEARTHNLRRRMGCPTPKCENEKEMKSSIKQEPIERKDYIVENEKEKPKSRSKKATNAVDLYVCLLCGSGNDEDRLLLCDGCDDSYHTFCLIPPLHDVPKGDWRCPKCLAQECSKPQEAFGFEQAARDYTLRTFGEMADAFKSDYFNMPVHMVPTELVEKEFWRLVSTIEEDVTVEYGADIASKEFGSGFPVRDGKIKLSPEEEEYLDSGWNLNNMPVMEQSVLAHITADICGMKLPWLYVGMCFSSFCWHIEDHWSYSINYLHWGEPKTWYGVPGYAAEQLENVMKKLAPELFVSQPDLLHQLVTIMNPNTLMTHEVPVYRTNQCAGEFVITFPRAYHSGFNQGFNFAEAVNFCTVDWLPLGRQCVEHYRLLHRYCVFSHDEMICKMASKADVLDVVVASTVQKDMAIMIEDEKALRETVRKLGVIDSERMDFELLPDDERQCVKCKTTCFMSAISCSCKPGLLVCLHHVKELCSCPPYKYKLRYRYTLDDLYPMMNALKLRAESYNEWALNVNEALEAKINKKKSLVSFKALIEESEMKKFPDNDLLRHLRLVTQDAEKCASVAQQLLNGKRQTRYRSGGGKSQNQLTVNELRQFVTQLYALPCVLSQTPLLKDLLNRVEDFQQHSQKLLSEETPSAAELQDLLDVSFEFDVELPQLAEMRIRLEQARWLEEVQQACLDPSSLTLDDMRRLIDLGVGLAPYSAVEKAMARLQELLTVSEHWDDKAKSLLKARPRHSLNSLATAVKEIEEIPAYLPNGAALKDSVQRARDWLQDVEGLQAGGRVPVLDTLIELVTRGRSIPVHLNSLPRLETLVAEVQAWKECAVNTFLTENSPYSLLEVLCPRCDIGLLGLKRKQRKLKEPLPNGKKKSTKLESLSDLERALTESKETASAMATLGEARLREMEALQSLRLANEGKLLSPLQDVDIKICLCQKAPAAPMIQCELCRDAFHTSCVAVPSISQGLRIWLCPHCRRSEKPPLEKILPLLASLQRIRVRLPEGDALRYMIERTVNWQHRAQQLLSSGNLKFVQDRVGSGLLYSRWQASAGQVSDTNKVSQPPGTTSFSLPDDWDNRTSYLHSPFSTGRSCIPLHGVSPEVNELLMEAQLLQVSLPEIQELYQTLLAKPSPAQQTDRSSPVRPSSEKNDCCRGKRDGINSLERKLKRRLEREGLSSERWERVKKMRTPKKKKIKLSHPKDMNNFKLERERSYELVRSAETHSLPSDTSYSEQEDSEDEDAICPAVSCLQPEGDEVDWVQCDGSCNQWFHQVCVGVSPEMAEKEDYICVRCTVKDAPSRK

| Structure (SMILES) | Potency | activity change, negative = inhibition |
| --- | --- | --- |
| CCCNC(=O)CN(C)C(=O)c1cc2ccccc2n1CC | inactive |  |
| CCc1ccc(CN2CCC3(CC2)Cc2ccccc2CNC3=O)cc1 | inactive |  |
| COc1ccc(C(=O)Nc2ccc(-c3cc4ccccc4oc3=O)c(C)c2)cc1OC | inconclusive: 12.6 µM [inhibitor, partial curve, poor fit] |  |
| O=c1cn[nH]c2ccccc12 | inconclusive: 11.2 µM [inhibitor, partial curve, poor fit] |  |
| O=C(NCc1ccc(F)cc1)C1(CCO)CCN(c2ncccn2)C1 (stereo not given) | active: 28.2 µM |  |
| C=CCN(Cc1cccs1)C(=O)CCc1ccco1 | inconclusive: 14.1 µM [inhibitor, partial curve, poor fit] |  |
| O=S(=O)(NC[C@H]1O[C@@H](CO)[C@@H](O)[C@H]1N1CCN(c2ccccn2)CC1)c1ccccc1 | inconclusive: 28.2 µM [inhibitor, partial curve] |  |
| CN(C)[C@@H]1CN(C2CCSCC2)CC[C@@H]1CNC(=O)C1CC1 | inconclusive: 20 µM [inhibitor, single point] |  |
| O=[S+]([O-])(NC1CCN(c2nc3ncccc3o2)CC1)c1cccs1 | active: 22.4 µM |  |
| Cc1ccc(Cl)cc1NC(=O)CCNS(=O)(=O)/C=C/c1ccccc1 | inactive |  |
| COc1ccccc1Nc1nn2c(=O)c3ccc(C(=O)NCc4ccc(F)cc4)cc3nc2s1 | inconclusive: 3.98 µM [inhibitor, full curve, poor fit] |  |
| Cc1nc(NC(=O)c2ccccc2)sc1-c1csc(Nc2ccccc2)n1 | inconclusive: 22.4 µM [inhibitor, partial curve, poor fit] |  |
| Fc1cccc(Cl)c1CSc1nc2ncccc2o1 | inactive |  |
| CCN(Cc1ccco1)C(=O)c1cc2cc(C)ccc2[nH]1 | inconclusive: 35.5 µM [inhibitor, single point] |  |
| Cc1c(O)ccc2c(=O)c(-c3cnn(-c4ccccc4)c3)c(C(F)(F)F)oc12 | inactive |  |
| COCCNC(=O)C(c1ccc(F)cc1)N(Cc1ccco1)C(=O)CCC(=O)Nc1ccccn1 (stereo not given) | inactive |  |
| CCCNC(=O)C(NC(=O)CC(C)C)C1CCN(C(=O)c2ccc(Cl)cc2)CC1 (stereo not given) | inactive |  |
| CN1CC2(CCN(C3CCN(Cc4ccccc4)CC3)CC2)CC1C(=O)N1CCOCC1 (stereo not given) | inconclusive: 22.4 µM [inhibitor, partial curve] |  |
| Cc1cccc(-c2nnn3c2nc(NCc2ccccc2)c2ccccc23)c1 |  | inconclusive: -41.2% [inhibitor] |
| COc1cccc(Nc2nc(-c3ccccc3)cs2)c1 | inconclusive: 25.1 µM [inhibitor, single point] |  |
| CNC(=O)C1CCN(Cc2cc3ccccc3n2Cc2cccc(C)c2)CC1 | inconclusive: 50.1 µM [inhibitor, single point] |  |
| COc1ccc2nc(SCC(=O)c3cc(C)n(C)c3C)[nH]c2c1 | inactive |  |

| Structure (SMILES) | Potency | activity change, negative = inhibition |
| --- | --- | --- |
| Cc1cc(C)n2nc(CC(=O)N[C@H](c3ccccn3)C3CC(O)C3)nc2n1 (stereo not given in full) | inconclusive: 12.6 µM [inhibitor, partial curve] |  |
| O=C(Nc1ccc(=O)n2c1[C@@H]1C[C@@H](CN(C(=O)COc3ccccc3)C1)C2)c1cncnc1 | inactive |  |
| Fc1cccc(F)c1/C=N/NC(=S)Nc1ccc(Cl)c(Cl)c1 | inactive |  |
| CCc1ccc(-c2cc(C)no2)cc1S(=O)(=O)Nc1ccc(C)cn1 | inconclusive: 15.8 µM [inhibitor, partial curve, poor fit] |  |
| COc1ccc(NC(=O)Cn2c(C)cc3ccccc32)cc1 | inactive |  |
| Cc1cc(C)c(C#N)c(N2CCC3(CCC(=O)N(CC(C)O)C3)CC2)n1 (stereo not given) | active: 28.2 µM |  |
| CCOc1ccc(CNC(=O)c2ccc(NC(=O)N3CCSc4ncccc43)cc2)cc1OC | inconclusive: 31.6 µM [inhibitor, partial curve, poor fit] |  |
| CN(C)c1cc2c(cc1NC(=O)c1ccc(F)cc1)n(C)c(=O)n2C | inconclusive: 14.1 µM [inhibitor, partial curve, poor fit] |  |
| CN1CCCC1c1nc(C2CN(C(=O)c3cnccn3)C2)no1 (stereo not given) | inactive |  |
| CN(CC(=O)Nc1ccc(F)cc1)C(=O)COc1ncnc2scc(-c3ccc(Cl)cc3)c12 | inactive |  |
| O=C(c1ccncc1)N1C[C@@H]2OCC(=O)N(Cc3ccncc3)[C@@H]2C1 | inconclusive: 22.4 µM [inhibitor, partial curve] |  |
| O=C(NCCCc1nc2ccccc2n1Cc1ccccc1)C1CCCCC1 |  | inconclusive: -32.5% [inhibitor] |
| Cc1cccc(-c2cccc3c4c([nH]c23)[C@@H]2C[C@H](N(C)C(=O)NC3CCCCC3)[C@H]([C@H](C)O)CN2CC4)c1 | inconclusive: 12.6 µM [inhibitor, partial curve, poor fit] |  |
| COc1ccc(CNC(=O)c2nc(-c3cccc4[nH]ccc34)no2)cc1OC | inactive |  |
| Cc1ccccc1OCc1ccc(-c2nc(C#N)c(N3CCN(c4ccccc4)CC3)o2)o1 | inconclusive: 2.82 µM [inhibitor, full curve, poor fit] |  |
| CC1CN(c2ccc(Cl)cc2)C(=O)CN1C(=O)CCn1cccc1 (stereo not given) | inconclusive: 20 µM [inhibitor, partial curve, poor fit] |  |
| COc1ccccc1CN1CCc2nc(C(=O)Nc3ccccc3)oc2CC1 | inconclusive: 56.2 µM [inhibitor, single point] |  |
| COc1ccc(/C=N/OCc2ccc(Br)cc2)cc1OCc1ccccc1 | inconclusive: 28.2 µM [inhibitor, single point] |  |
| CCN1CCOC(=O)C1CC(=O)Nc1ccc(C(C)=O)cc1 (stereo not given) |  | inconclusive: -33.7% [inhibitor] |
| COc1cc(CN(C(=O)c2ccc(OC(C)C)cc2)C2CCS(=O)(=O)C2)cc(OC)c1OC (stereo not given) | inconclusive: 3.16 µM [inhibitor, full curve, poor fit] |  |
| CC(=O)c1cccc(NC(=O)CN2C(=O)c3cccnc3Sc3ccccc32)c1 | inconclusive: 17.8 µM [inhibitor, single point] |  |
| N#C/C(=C/c1ccncc1)C(=O)NCCc1ccccc1 | inconclusive: 39.8 µM [inhibitor, single point] |  |

| Structure (SMILES) | Potency | activity change, negative = inhibition |
| --- | --- | --- |
| Cc1ccc(C)c(Cn2c(=O)n(Cc3ccco3)c(=O)c3oc4ccccc4c32)c1 |  | inconclusive: -36.3% [inhibitor] |
| CCc1ccc(NC(=O)Cn2c(=O)n(-c3ccccc3)c(=O)c3ccc(C(=O)NCc4ccc5c(c4)OCO5)cc32)cc1 | inconclusive: 31.6 µM [inhibitor, partial curve, poor fit] |  |
| Cc1ccc(-c2cc3c(=O)n(CCNC(=O)c4ccc5c(c4)OCO5)ccn3n2)c(C)c1 | inconclusive: 35.5 µM [inhibitor, single point] |  |
| O=c1[nH]c2ccccc2cc1CN(CC1CCCO1)S(=O)(=O)c1ccc(Cl)cc1 (stereo not given) | inconclusive: 25.1 µM [inhibitor, single point] |  |
| N#CC1=C(N)Oc2c(c(=O)[nH]c3ccccc23)C1c1ccccc1 (stereo not given) | inconclusive: 10 µM [inhibitor, partial curve, poor fit] |  |
| COc1ccc(Nc2nc(-c3ccc(OC)cc3)nc3ccccc23)cc1 | inconclusive: 25.1 µM [inhibitor, single point] |  |
| COc1ccc(Cl)cc1NC(=O)c1ncn(-c2ccccc2)n1 | inconclusive: 25.1 µM [inhibitor, partial curve, poor fit] |  |
| COc1ccc(OC)c(NC(=O)Cc2c(C)n(C(=O)c3ccc(Cl)cc3)c3ccc(OC)cc23)c1 | inconclusive: 14.1 µM [inhibitor, partial curve, poor fit] |  |
| Cc1cccc(-c2ocnc2C(=O)Nc2ccc(C)c(Cl)c2)c1 | inconclusive: 39.8 µM [inhibitor, single point] |  |
| CCOC(=O)c1cnc2ccc(C(=O)OC)cc2c1Nc1ccc(N2CCOCC2)cc1 | inconclusive: 14.1 µM [inhibitor, partial curve, poor fit] |  |
| COc1ccc(/C=C/c2ccc3ccccc3n2)cc1O | inconclusive: 35.5 µM [inhibitor, single point] |  |
| CC1(CNc2ccccc2)COc2ccc(C(=O)N3CC(O)C3)cc2N1 (stereo not given) | inactive |  |
| Cc1ccc(CNC(=O)CC2Sc3ncccc3N(C)C2=O)o1 (stereo not given) | inconclusive: 35.5 µM [inhibitor, single point] |  |
| CCOc1ccc(CCNC(=O)c2ccc(CS(=O)(=O)c3ccccc3C)o2)cc1OCC |  | inconclusive: -40.3% [inhibitor] |
| CCCNc1nc2ccccc2nc1C(=O)Nc1cccc(C)c1C | inactive |  |
| CCc1ccccc1Nc1ncnc2c1cnn2-c1ccc(Cl)cc1 | inconclusive: 20 µM [inhibitor, partial curve, poor fit] |  |
| Cc1ccc(Nc2nc3ccccc3c3nnc(C)n23)cc1Cl | inconclusive: 7.08 µM [inhibitor, partial curve, poor fit] |  |
| Cc1ccc(-c2ccc3nnc(CNC(=O)Cc4ccc(F)cc4)n3n2)cc1C | inconclusive: 31.6 µM [inhibitor, partial curve, poor fit] |  |
| COc1ccc2cc(-c3[nH]ncc3CN3CCN(c4cccc(C)n4)CC3)ccc2c1 | active: 28.2 µM |  |
| C/C(=N\OCc1nc2ccccc2c(=O)n1/N=C/c1cc([N+](=O)[O-])ccc1O)c1ccccc1 | inconclusive: 14.1 µM [inhibitor, partial curve, poor fit] |  |
| CC(C)C(=O)N1c2nc(C(C)C)nn2C2(CCCCC2)[C@@H]2CCCC[C@@H]21 | inconclusive: 1.12 µM [inhibitor, partial curve, poor fit] |  |
